# Reference: the BET-seq Pho4 binding data (Le et al. 2018)
# This is one part of the list. The energies were worked out here from pooled read counts, against the library average; single values are noisy.
# Target: T1, Pho4 (S. cerevisiae) (UniProt P07270)
# T1 sequence: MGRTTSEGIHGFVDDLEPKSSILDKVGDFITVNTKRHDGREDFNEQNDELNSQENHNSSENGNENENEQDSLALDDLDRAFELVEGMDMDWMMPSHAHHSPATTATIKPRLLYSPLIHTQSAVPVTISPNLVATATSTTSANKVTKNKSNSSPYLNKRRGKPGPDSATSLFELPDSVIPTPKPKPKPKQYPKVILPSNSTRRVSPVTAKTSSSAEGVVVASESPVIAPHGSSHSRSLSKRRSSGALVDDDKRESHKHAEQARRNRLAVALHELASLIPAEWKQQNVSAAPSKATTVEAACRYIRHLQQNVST
# Experiment: relative binding free energy (BET-seq); higher = weaker binding
# Conditions: reference: library average
row,Sequence,relative binding free energy [kcal/mol]
1,GCAAGCACGTGGTGTG,-0.29
2,CTGGGCACGTGGCGTT,-0.15
3,GCGGGCACGTGTAGGT,0.09
4,TATGTCACGTGGGATA,0.03
5,TCAATCACGTGGGAGT,0.03
6,GTTTGCACGTGCGTTG,0.08
7,TGAAGCACGTGGATTG,-0.07
8,GCGAGCACGTGTGGGA,-0.02
9,GATTGCACGTGCGAGG,0.03
10,TGGTACACGTGAGGCA,0.28
11,GTGGACACGTGTGAAA,0.43
12,AGGGGCACGTGCGTGT,-0.25
13,GGTAACACGTGGGTAT,-0.05
14,GAGTGCACGTGGGGAT,-0.07
15,CAGTGCACGTGTGGGT,-0.04
16,TCGGACACGTGGGAAT,0.09
17,CGCGTCACGTGGTGGA,0
18,AAAAGCACGTGATTGG,0.02
19,TACTGCACGTGGGTAG,-0.12
20,CGTGGCACGTGGCCGT,-0.25
21,TATTGCACGTGCTAGT,-0.17
22,GGGGTCACGTGGTCAA,-0.03
23,GGCAACACGTGTGGGT,0.05

row,Sequence,relative binding free energy [kcal/mol]
1,GGTTACACGTGTGGGC,0.1
2,GGTTGCACGTGGCCGA,-0.03
3,TTGGACACGTGGTTGA,0.17
4,GTAGGCACGTGGGTTA,-0.25
5,CAGGTCACGTGAATTG,0.2
6,TTTTTCACGTGCAGAT,0.29
7,AAGGACACGTGTAGTG,-0.09
8,GGGAGCACGTGTTGTG,0.01
9,TGGGGCACGTGAGATA,0.19
10,CTGGGCACGTGCATGG,-0.07
11,GTATGCACGTGTGTAT,0
12,ATTTACACGTGTACGT,0.07
13,TAAGCCACGTGGGTGT,-0.15
14,AGTATCACGTGGGGCA,-0.11
15,CGGGTCACGTGTACGT,0.18
16,ATGGTCACGTGTTTGC,0.1
17,GTGGTCACGTGGCCTT,0.1
18,GTTATCACGTGGGCCT,0
19,TTATTCACGTGTCTTA,0.1
20,TATTTCACGTGGAGGC,0.35
21,GTTATCACGTGGTGGG,0.15
22,GGGTTCACGTGTGGAT,0.49
23,GGTTCCACGTGTCTTT,0.22

row,Sequence,relative binding free energy [kcal/mol]
1,GTATCCACGTGTTCGT,0.25
2,AAATTCACGTGGTGGC,0.19
3,TGATGCACGTGAAATA,0.25
4,ATGGCCACGTGTATTG,-0.02
5,TGCAGCACGTGGGTGT,-0.31
6,ATGCCCACGTGGGTGT,-0.29
7,AGTTTCACGTGGAGAG,0.38
8,TTTGGCACGTGTGATC,0.09
9,CGTTGCACGTGGCAGG,-0.15
10,TCTTACACGTGAGTGT,0.12
11,GTGTGCACGTGATGAA,0.04
12,GTTGCCACGTGGGTGC,-0.14
13,TATATCACGTGGAATC,0.41
14,CGGTTCACGTGAAGGG,0.38
15,GGGGCCACGTGTGTGC,0.06
16,TGGGGCACGTGTGCTG,-0.07
17,GTGATCACGTGTGGCA,0.32
18,GTTATCACGTGTACTT,0.13
19,GGGGTCACGTGTCTTA,0.17
20,ATAAGCACGTGTTTAA,-0.18
21,TCAATCACGTGTGGGT,0.27
22,TGAAGCACGTGAGGAT,0.18
23,ATCGGCACGTGGACGG,-0.11

row,Sequence,relative binding free energy [kcal/mol]
1,TTTTACACGTGCCTTT,0.15
2,AAGTGCACGTGGGCTT,-0.03
3,CTTAGCACGTGAGGGA,0.23
4,ATTTGCACGTGCGTGC,-0.12
5,TGAGGCACGTGTAGCA,-0.09
6,TCAAACACGTGAGGGG,0.15
7,TACTGCACGTGAATTG,0.34
8,CTTAACACGTGATGTA,0.24
9,TATGACACGTGAGTGG,0.25
10,CAAGTCACGTGATGTG,0.15
11,AGAATCACGTGTTCGT,0.15
12,GCGTTCACGTGTTGAA,0.31
13,GGATGCACGTGGAAGT,0.13
14,TTACTCACGTGGTAAT,0.11
15,TAGCACACGTGTTGGT,0.08
16,GACTTCACGTGGTTAG,0.44
17,GAACACACGTGGGGGG,0.05
18,GGCTGCACGTGGGTTC,-0.02
19,TATATCACGTGTAATT,0.11
20,AGGATCACGTGAGGGT,0.41
21,TTGGACACGTGTCGGG,0.03
22,CGGGGCACGTGTAAGT,-0.07
23,AGAGTCACGTGGATCG,0.1

row,Sequence,relative binding free energy [kcal/mol]
1,ATTAACACGTGTATAG,-0.02
2,CGTTGCACGTGATGCA,0.09
3,AGTAGCACGTGAGTAT,0.17
4,AGTGCCACGTGTTTTA,-0.14
5,TGGACCACGTGTATGG,0.06
6,TGGGGCACGTGCAGGA,-0.19
7,CATTTCACGTGTGGGA,0.22
8,TGGTCCACGTGGAGAT,0.02
9,GTGTACACGTGTCGTG,0.13
10,TAGGACACGTGGTCAG,-0.14
11,GGTTACACGTGGCGGA,0.09
12,TAAACCACGTGTTGTT,0.03
13,GGGGCCACGTGTAGGC,-0.06
14,TTATGCACGTGATCTT,-0.07
15,ATTTGCACGTGGGGAG,-0.05
16,TTGGACACGTGTCGGC,0.12
17,AGCGGCACGTGCGGAT,0.03
18,CGCGGCACGTGAAGGT,0.14
19,TATTTCACGTGTGAGC,0.29
20,TTCAGCACGTGAAAGG,0.26
21,TGTTTCACGTGGACGG,0.4
22,TAATGCACGTGGAGGT,-0.01
23,TCATACACGTGGAGGT,0.1
